Assay results reported in the BET-seq Pho4 binding data (Le et al. 2018).
The other results are listed elsewhere or left out. The energies were worked out here from pooled read counts, against the library average; single values are noisy.

Target: T1, Pho4 (S. cerevisiae) (UniProt P07270)
T1 sequence: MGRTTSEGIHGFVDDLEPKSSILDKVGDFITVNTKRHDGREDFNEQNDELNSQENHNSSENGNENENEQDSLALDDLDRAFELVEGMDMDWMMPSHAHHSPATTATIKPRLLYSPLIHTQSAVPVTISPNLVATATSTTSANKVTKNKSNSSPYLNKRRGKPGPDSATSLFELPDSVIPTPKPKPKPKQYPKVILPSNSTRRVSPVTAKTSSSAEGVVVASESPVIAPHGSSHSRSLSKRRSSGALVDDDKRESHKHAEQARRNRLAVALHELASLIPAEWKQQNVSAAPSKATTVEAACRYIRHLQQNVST
Experiment: relative binding free energy (BET-seq); higher = weaker binding
Settings: reference: library average

Relative binding free energy, 0 kcal/mol:
ATTTGCACGTGTAATA
TCATGCACGTGCGTGT
GGTAGCACGTGATGCG

Relative binding free energy, -0.03 kcal/mol:
TGGTGCACGTGATCAT
TAAGGCACGTGTTGAG
TGGGGCACGTGTTGAA
TGTGACACGTGTAGGT
TTTCGCACGTGGAAGG
TTTAACACGTGGCTGA
AATAGCACGTGTTGAA

Relative binding free energy, 0.09 kcal/mol:
GATCACACGTGTTGTT
TGCTACACGTGTTTGG
TTAATCACGTGTCGTA
TTTACCACGTGATGGG
TGGGCCACGTGAGAGG
GGCGTCACGTGGAGAT

Relative binding free energy, 0.15 kcal/mol:
TTTGTCACGTGTGGTC
ACTTACACGTGTAGGT
AAGTGCACGTGAGGGC
CGGGTCACGTGTATTT
GGTCTCACGTGGGGTG
TGTTTCACGTGCATTT

Relative binding free energy, 0.38 kcal/mol:
TTCTTCACGTGAAGTT

Relative binding free energy, -0.26 kcal/mol:
TGGGCCACGTGGGCGG
GGAGGCACGTGCTGTG

Relative binding free energy, -0.04 kcal/mol:
TACTGCACGTGTATGG
AGACGCACGTGTTAGG
ATCGGCACGTGATTTA
AGTGGCACGTGATCGA
TTCTACACGTGGTGTA

Relative binding free energy, -0.39 kcal/mol:
ACGCGCACGTGGGGTG

Relative binding free energy, 0.31 kcal/mol:
CAGGTCACGTGAGGTT
ATGTTCACGTGTTAGA
TTGGACACGTGATCAT
GGATTCACGTGGTAGA

Relative binding free energy, 0.1 kcal/mol:
GGGGGCACGTGTAAGT
TTTATCACGTGGGCGT
GGACGCACGTGAGGAG
ATGGTCACGTGCTGAG
ACGGTCACGTGTGTTA
GACGGCACGTGTTGGA
GGGGACACGTGTTTTC

Relative binding free energy, -0.11 kcal/mol:
CGTTGCACGTGGGGGT
TGTAACACGTGTTGCA

Relative binding free energy, -0.07 kcal/mol:
CGTGTCACGTGGGCTA
AGTTGCACGTGGACAG
ATAAGCACGTGGTGCG
TTTGCCACGTGCGTTT
ATTAGCACGTGCGTGA
TGTGGCACGTGGATAA
TTATGCACGTGCTAAG
GGGTCCACGTGCAGGT

Relative binding free energy, 0.04 kcal/mol:
TTAGTCACGTGGGTCA
AGTGGCACGTGATTGG
GTGGACACGTGTTATA

Relative binding free energy, 0.53 kcal/mol:
GGTTTCACGTGACACG

Relative binding free energy, -0.18 kcal/mol:
AGGGGCACGTGTTGCA

Relative binding free energy, 0.13 kcal/mol:
GTTTACACGTGTCTTA
TATAGCACGTGGAATT

Relative binding free energy, -0.12 kcal/mol:
GGATGCACGTGGGCCG
GGGACCACGTGGTTTG

Relative binding free energy, 0.06 kcal/mol:
GATTGCACGTGTCAGT
GAGTGCACGTGGAGCG
GTACGCACGTGTTGAG
TGTGTCACGTGGACGA

Relative binding free energy, 0.07 kcal/mol:
AATAACACGTGATTGT
TCAGTCACGTGTTTTT
TGCTACACGTGTAGGG
TTATGCACGTGTAAGG
GGCCTCACGTGGGTAG
GCCGGCACGTGTTTTG

Relative binding free energy, -0.13 kcal/mol:
AGAGGCACGTGTTTTG

Relative binding free energy, 0.16 kcal/mol:
TGCATCACGTGGGGAT
TGGTTCACGTGTTCGC
AGATTCACGTGGCAGT
ACGGTCACGTGCGGGA

Relative binding free energy, 0.35 kcal/mol:
AGATTCACGTGTAGAT

Relative binding free energy, -0.19 kcal/mol:
GTGAGCACGTGGGTGG
GCGGGCACGTGTCGGG
ATTGACACGTGGTCGG

Relative binding free energy, 0.05 kcal/mol:
TGTATCACGTGGGTAA
ATTTCCACGTGGCGGG
GGGTACACGTGGAGGA

Relative binding free energy, -0.23 kcal/mol:
GCGGGCACGTGGGGTC
ATAGGCACGTGGCGAT

Relative binding free energy, 0.27 kcal/mol:
GGGTTCACGTGCGCTA
TGTTTCACGTGTAAGA

Relative binding free energy, 0.24 kcal/mol:
TGTTCCACGTGAGGCG

Relative binding free energy, -0.01 kcal/mol:
TACATCACGTGTTGTG
TGTCGCACGTGAGTAG
TTCGGCACGTGTCTGT
ACTTGCACGTGGAAGG
TGGGTCACGTGGGGTG
TATTACACGTGGGTCA
CTTAGCACGTGTATTT

Relative binding free energy, 0.34 kcal/mol:
TGGTTCACGTGTTCGG
GTCGTCACGTGATGAT
TTTATCACGTGTAACA

Relative binding free energy, 0.02 kcal/mol:
TGATGCACGTGAGGCT
AGAGGCACGTGAACGG
TCGTCCACGTGGTGGG
TTTAGCACGTGTGCGA

Relative binding free energy, 0.18 kcal/mol:
AGCTTCACGTGTATTG
ATCGTCACGTGTAATT
GGAATCACGTGTTAGA

Relative binding free energy, 0.21 kcal/mol:
GTAGGCACGTGAGGGG
TGTCTCACGTGTGGAG

Relative binding free energy, 0.01 kcal/mol:
TGCTGCACGTGTGGGC
TCGTGCACGTGTGTGG

Relative binding free energy, 0.4 kcal/mol:
GAATGCACGTGAGTTT

Relative binding free energy, -0.34 kcal/mol:
TGACGCACGTGGGTAT

Relative binding free energy, 0.17 kcal/mol:
CAGTACACGTGTGGGC
TTAGTCACGTGACGTA
TGTTTCACGTGTCGAA
CTATACACGTGAGTGT
GGTTACACGTGCGTCT

Relative binding free energy, -0.15 kcal/mol:
TGCGGCACGTGGTGCT

Relative binding free energy, -0.24 kcal/mol:
CGTGCCACGTGGGTGT
TGCGGCACGTGGGGGA

Relative binding free energy, 0.5 kcal/mol:
TGGCTCACGTGAGATT

Relative binding free energy, 0.2 kcal/mol:
AGCTTCACGTGTGATG
GGGTTCACGTGGTCTA
TTTTCCACGTGTTATA
AGATTCACGTGTATTA
GGTGTCACGTGAGGGC

Relative binding free energy, -0.17 kcal/mol:
AGGAGCACGTGTGTAT

Relative binding free energy, 0.25 kcal/mol:
GGGTGCACGTGAGCAT
TACATCACGTGATGTT

Relative binding free energy, 0.43 kcal/mol:
GTCTTCACGTGGATTG
TCGTTCACGTGAGTTC

Relative binding free energy, -0.21 kcal/mol:
GTAAGCACGTGGGGGT
TAGCGCACGTGGTATT

Relative binding free energy, -0.14 kcal/mol:
GGTGGCACGTGGCTGC
ACGTGCACGTGTGGCG
CTGGCCACGTGGGCGG
CGTGGCACGTGTTAGC

Relative binding free energy, 0.26 kcal/mol:
TGGCTCACGTGGCGTA

Relative binding free energy, 0.03 kcal/mol:
AATGTCACGTGGCGGT
GGGTGCACGTGTGGCC
TTTCACACGTGCGGTG
TTTTACACGTGCACGG

Relative binding free energy, 0.41 kcal/mol:
TTGTTCACGTGAAGGT

Relative binding free energy, 0.14 kcal/mol:
TGGGACACGTGAGGCT
GTAGTCACGTGCTATG
GTTGGCACGTGTCGGA
CGGGACACGTGTAAGG
ATGGTCACGTGTGATT
ATAGTCACGTGTGTCA
TCGGTCACGTGTCAGG

Relative binding free energy, 0.39 kcal/mol:
CGAGTCACGTGAGTTT
GAGTTCACGTGCGAGT
AAGTTCACGTGAGGAT
GCTTTCACGTGTTGTC

Relative binding free energy, 0.33 kcal/mol:
GTTTCCACGTGATTTA
GAATTCACGTGGTGCA
TTGTACACGTGAAAAG

Relative binding free energy, 0.46 kcal/mol:
AGTTTCACGTGAAAAG

Relative binding free energy, -0.02 kcal/mol:
GGTTCCACGTGGGGAT
AATGGCACGTGTTTAT
TCGGCCACGTGTGGGG
AAATGCACGTGTGGTA
TGTGCCACGTGGAGTT

Relative binding free energy, 0.11 kcal/mol:
GTTGACACGTGTTATT
AATTCCACGTGTGTGT
TGGCACACGTGGGAAT
TGTGGCACGTGAAATG

Relative binding free energy, 0.19 kcal/mol:
ATTGTCACGTGATTGT
TTCCTCACGTGTGTGT
GTGGTCACGTGTTATT
TTCGTCACGTGAGCGG
GGGTCCACGTGTGTTG
ACGTTCACGTGTGGCA
GATCTCACGTGGGTTG

Relative binding free energy, 0.28 kcal/mol:
TTTTTCACGTGCTTTC
TTCTTCACGTGTAGTT
GCTTTCACGTGTTGAT

Relative binding free energy, 0.29 kcal/mol:
CGTCTCACGTGTTGTT
TCGTTCACGTGCATGG
TGTTTCACGTGTTTTT

Relative binding free energy, 0.52 kcal/mol:
GTGCTCACGTGATATG

Relative binding free energy, -0.2 kcal/mol:
AAAGGCACGTGGGTAT

Relative binding free energy, -0.09 kcal/mol:
TTGCGCACGTGTATTG
GAGGGCACGTGGACTT
GTAGGCACGTGGTCGA
GGGTGCACGTGCGGGG

Relative binding free energy, 0.12 kcal/mol:
AGAAACACGTGTGGCG
ATTGCCACGTGTATTA
GGTCGCACGTGTTTAT
GTGCGCACGTGAGTAT
TATCTCACGTGTATTG
GGAGTCACGTGGGTAT
ACTGGCACGTGAGGGC

Relative binding free energy, -0.33 kcal/mol:
TCGGGCACGTGGGCCG
ATAAGCACGTGGGGTG

Relative binding free energy, -0.08 kcal/mol:
AAGAACACGTGGGGGT
TTGTGCACGTGCGAGT
TCACTCACGTGGGGGG
AAGGTCACGTGGGCCG
TGGGGCACGTGGGGAA
AGTGACACGTGGGTTG
CGATACACGTGGGGGA
AGAAACACGTGTGGTG

Relative binding free energy, 0.08 kcal/mol:
AGGTACACGTGTTAGA
GATATCACGTGGGGGT
GACGTCACGTGGGGAA
GCGGTCACGTGGATGT

Relative binding free energy, 0.3 kcal/mol:
AGACTCACGTGGAGTT
TGGTTCACGTGTTGTT
TTCGACACGTGAATGT
GAGTGCACGTGAGTGT

Relative binding free energy, -0.06 kcal/mol:
ATGTACACGTGGGGCT

Relative binding free energy, 0.23 kcal/mol:
TTACTCACGTGATTGT
AGTCGCACGTGAAGTT
GAAATCACGTGGTGCG

Relative binding free energy, 0.36 kcal/mol:
GAGTTCACGTGCTTGA
GTTATCACGTGGAAGG
GTTTACACGTGAGTGG

Relative binding free energy, 0.22 kcal/mol:
AGGATCACGTGCAGTG
ATTTACACGTGTAGCG
TCTTTCACGTGGGGCG
AGTTACACGTGATGTT

Relative binding free energy, 0.32 kcal/mol:
GTTGACACGTGAATTT
GATGTCACGTGATGGA
GGCTTCACGTGTCTGT

Relative binding free energy, -0.1 kcal/mol:
TGCTGCACGTGCGTTG
CACGGCACGTGGTTGG
GCGGGCACGTGCGATG

Relative binding free energy, -0.16 kcal/mol:
AGTTGCACGTGCTTAG
GGGGGCACGTGGTACT
ATGGGCACGTGTATAT
